Laboratory results reported in PMC4336329 (PLoS ONE, 2015).
In all, about 310,000 compounds went through this assay and about 2,200 (0.71%) showed an effect of 50% or more. Effects have a minus sign here. This is one part of the list.

Target: human ether-à-go-go-related gene (hERG) potassium channel (human, UniProt Q12809)
Test: primary screen, population patch clamp on CHO cells stably expressing hERG

Sequence of human ether-à-go-go-related gene (hERG) potassium channel (Q12809 whole entry, looked up): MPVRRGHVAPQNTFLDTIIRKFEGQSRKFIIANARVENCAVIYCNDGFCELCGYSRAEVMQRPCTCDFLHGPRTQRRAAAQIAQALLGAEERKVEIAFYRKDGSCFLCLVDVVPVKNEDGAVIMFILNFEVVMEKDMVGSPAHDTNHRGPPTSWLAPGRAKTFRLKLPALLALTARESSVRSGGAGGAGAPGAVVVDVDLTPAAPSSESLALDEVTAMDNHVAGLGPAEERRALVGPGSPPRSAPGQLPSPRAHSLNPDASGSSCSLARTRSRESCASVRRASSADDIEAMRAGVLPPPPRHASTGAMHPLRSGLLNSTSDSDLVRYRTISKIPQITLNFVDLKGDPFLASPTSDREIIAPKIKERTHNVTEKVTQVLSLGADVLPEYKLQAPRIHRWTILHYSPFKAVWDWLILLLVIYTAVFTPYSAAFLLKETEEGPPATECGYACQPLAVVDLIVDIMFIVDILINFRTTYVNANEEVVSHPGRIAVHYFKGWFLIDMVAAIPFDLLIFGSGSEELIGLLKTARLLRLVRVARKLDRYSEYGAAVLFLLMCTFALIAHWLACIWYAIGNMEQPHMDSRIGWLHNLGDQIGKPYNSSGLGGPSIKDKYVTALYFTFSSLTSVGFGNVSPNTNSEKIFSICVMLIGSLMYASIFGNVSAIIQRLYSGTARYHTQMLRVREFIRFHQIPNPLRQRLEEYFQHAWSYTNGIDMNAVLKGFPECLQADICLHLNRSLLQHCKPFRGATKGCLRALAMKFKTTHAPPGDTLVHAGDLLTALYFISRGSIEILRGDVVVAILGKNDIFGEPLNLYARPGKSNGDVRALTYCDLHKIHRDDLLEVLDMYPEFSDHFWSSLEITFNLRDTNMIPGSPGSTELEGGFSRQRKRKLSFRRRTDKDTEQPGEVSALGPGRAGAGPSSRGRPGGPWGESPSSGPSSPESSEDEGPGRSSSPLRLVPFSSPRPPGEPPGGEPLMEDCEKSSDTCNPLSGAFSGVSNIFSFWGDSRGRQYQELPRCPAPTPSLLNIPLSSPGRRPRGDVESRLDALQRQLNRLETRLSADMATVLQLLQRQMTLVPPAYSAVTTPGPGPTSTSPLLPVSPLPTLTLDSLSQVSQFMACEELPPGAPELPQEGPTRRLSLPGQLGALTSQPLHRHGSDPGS

SMILES | hERG current change (%, negative = inhibition) at 1uM [%]
Cc1ccc(-n2c3c(cc(C(=O)NCc4ccco4)c2=O)C(=O)CC(C)(C)C3)cc1 | 14
CCc1ccc(CNC(=O)CCc2cn(C)c3ccccc23)cc1 | 8.36
Cc1ccnc(NC(=O)CNC(=O)c2cccs2)c1 | 9.92
C#CC1(O)CC(C)N(C)C(C)C1.Cl (stereo not shown) | 6.28
CN(C)CC[C@@H](c1ccc(Br)cc1)c1ccccn1.O=C(O)/C=C\C(=O)O | -1.19
O=[N+]([O-])c1ccc(SCCc2ccncc2)cc1 | -24.4
COc1ccc(C)cc1NC(=O)C(OC(=O)CNC(=O)c1ccc(Br)cc1)c1ccccc1 (stereo not shown) | 11.1
N#Cc1nc(Nc2cc(F)cc(F)c2)c2ncn(CC(F)F)c2n1 | 19.5
Cc1cc(C(=O)Nc2ccc(F)c(Cl)c2)on1 | 16.8
CC(=O)N1CCN(S(=O)(=O)c2ccc(F)c(Cl)c2)CC1 | 7.48
COCC(=O)OCC(=O)N1N=C(c2ccc(Cl)cc2)CC1c1ccco1 (stereo not shown) | 13.1
Cc1ccc(NC(=O)[C@H](Cc2ccccc2)NC(=O)C2CCNCC2)cc1 | 7.62
CC1=C(C(=O)OCc2ccccc2)C(c2ccc(Br)cc2)NC(=O)N1CCCC(=O)O (stereo not shown) | 13.6
O=C(Nc1cccc(O)c1)c1ccc2c(c1)C(=O)N(Cc1ccco1)C2=O | 4.23
Cc1ccc(S(=O)(=O)N(C)C)cc1NC(=O)C(C)Sc1ccccc1 (stereo not shown) | 6.62
CC(CCc1ccco1)NC(=O)Cn1nc(Cc2ccncc2)c2ccccc2c1=O (stereo not shown) | -20.2
O=C(Nc1ccccc1)N(Cc1ccccc1)CC(O)C(F)(F)F (stereo not shown) | 14.5
C=CCOc1ccc(CN(C)CC(=O)N(CC(C)C)c2c(N)n(CC(C)C)c(=O)[nH]c2=O)cc1 | 13.3
COc1cc(/C=C2\C(=O)N(CCC#N)N=C2C)ccc1OCC(=O)Nc1ccccc1 | 1.11
COc1ccc(Cl)cc1NC(=O)Nn1cnnc1 | 0.286
NC(=O)c1ccc(NC(=O)c2ccccc2S(=O)(=O)c2ccccc2[N+](=O)[O-])cc1 | 7.15
C/C(=N\NC(=O)CNC(=O)c1ccc2c(c1)OCCO2)c1ccco1 | 13.5

SMILES | hERG current change (%, negative = inhibition) at 1uM [%]
CCOC(=O)C(C)N1N=C(/C=C/c2ccc(OC)cc2)CCC1=O (stereo not shown) | 10.3
CCCCN(C(=O)C(C)Oc1cccc(Cl)c1)c1c(N)n(CCC)c(=O)[nH]c1=O (stereo not shown) | 3.62
O=C(CSc1nc2ccccc2c(=O)n1-c1cccc(C(F)(F)F)c1)NC1CC1 | 4.73
Cc1noc(C)c1S(=O)(=O)N(CC(=O)NCCc1ccccc1)c1ccc(C(C)C)cc1 | 13
COc1cccc(NC(=O)CSc2nnc(-c3cccnc3)o2)c1 | 13.2
Cc1ccc(C)c(-c2nnc(NC(=O)CCS(=O)(=O)c3ccc(F)cc3)o2)c1 | -7.35
COc1ccccc1CNC(=S)NC1CCCC1 | 17.5
CCN(C(=O)COC(=O)c1ccc(S(=O)(=O)N2CCCc3ccccc32)cc1)C1CCS(=O)(=O)C1 (stereo not shown) | 7.48
COc1cc(/C=C2\SC(=Nc3cccnc3)NC2=O)cc(OC)c1OC | 16.2
COc1ccc(C(=O)Nc2ccc(N3CCN(C)CC3)cc2)cc1 | 11.9
Cc1ccc(C2C(C#N)=C(N)Oc3cc(N)ccc32)cc1 (stereo not shown) | 12.1
O=C(Nc1ccc(S(=O)(=O)NC2=NCCCCC2)cc1)c1ccccc1Cl | 4.57
O=S1(=O)CC(O)C(N=Nc2c(O)n(Cc3ccccc3)c3ccccc23)C1 (stereo not shown) | 10.1
COc1ccc(OC)c(/C=C/C(=O)OCC(=O)Nc2cccc(C(C)=O)c2)c1 | 8.22
COC(=O)c1cccc(NC(=O)c2cccnc2C(=O)O)c1C | 20.9
CC(Cc1cccs1)NC(=O)c1cccs1 (stereo not shown) | 13.8
COc1ccc(S(=O)(=O)NCC2CCCN(C(=O)CSC)C2)cc1 (stereo not shown) | 26.5
CCOC(=O)N1CCC(N2CC34C=CC(O3)C(C(=O)Nc3ccc(C(C)C)cc3)C4C2=O)CC1 (stereo not shown) | -0.951
Cc1cc(C)cc(-n2c(C)c3c(C)nnc(C)c3c2C)c1 | 0.294
NC(=O)CSc1nnc(-c2ccc(S(=O)(=O)N3CCCCC3)cc2)n1-c1ccccc1 | 4.46
Cc1ncc(CO)c2c1Oc1nc(-c3ccccc3)nc(SCC(=O)N(C)c3ccccc3)c1C2 | 9.6
